These are yes or no findings as the source states them, for the method shown. Binding seen in cells or lysates may run through a third protein. Some results given as binding are weak or reduced against the parent protein; the word gives no strength.

The chains behind the UniProt entries cited, without tags or fusion partners. Where a name states a change or a piece, a line headed by the entry shows the natural chain unless it says otherwise.
UniProt P03431: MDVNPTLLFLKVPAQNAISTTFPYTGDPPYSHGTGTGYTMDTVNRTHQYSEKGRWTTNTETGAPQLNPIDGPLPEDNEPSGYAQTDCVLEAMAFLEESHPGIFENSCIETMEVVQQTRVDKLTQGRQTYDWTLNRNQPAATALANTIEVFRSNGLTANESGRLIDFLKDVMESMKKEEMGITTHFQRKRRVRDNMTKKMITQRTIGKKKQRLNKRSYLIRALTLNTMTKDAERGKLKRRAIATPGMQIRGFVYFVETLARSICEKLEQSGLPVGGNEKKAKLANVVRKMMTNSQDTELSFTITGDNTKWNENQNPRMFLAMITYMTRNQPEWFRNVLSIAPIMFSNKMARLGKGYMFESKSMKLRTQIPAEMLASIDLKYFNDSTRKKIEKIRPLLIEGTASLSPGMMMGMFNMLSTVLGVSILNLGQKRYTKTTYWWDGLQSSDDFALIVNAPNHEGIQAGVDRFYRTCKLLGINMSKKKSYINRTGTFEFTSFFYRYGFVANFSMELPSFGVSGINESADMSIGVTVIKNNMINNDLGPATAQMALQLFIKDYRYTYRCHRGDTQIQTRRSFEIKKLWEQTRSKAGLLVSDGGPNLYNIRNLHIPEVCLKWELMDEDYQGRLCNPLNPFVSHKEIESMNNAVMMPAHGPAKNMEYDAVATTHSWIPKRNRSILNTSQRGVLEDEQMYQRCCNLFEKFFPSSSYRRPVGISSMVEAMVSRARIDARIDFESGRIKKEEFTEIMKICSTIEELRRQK
UniProt P03466: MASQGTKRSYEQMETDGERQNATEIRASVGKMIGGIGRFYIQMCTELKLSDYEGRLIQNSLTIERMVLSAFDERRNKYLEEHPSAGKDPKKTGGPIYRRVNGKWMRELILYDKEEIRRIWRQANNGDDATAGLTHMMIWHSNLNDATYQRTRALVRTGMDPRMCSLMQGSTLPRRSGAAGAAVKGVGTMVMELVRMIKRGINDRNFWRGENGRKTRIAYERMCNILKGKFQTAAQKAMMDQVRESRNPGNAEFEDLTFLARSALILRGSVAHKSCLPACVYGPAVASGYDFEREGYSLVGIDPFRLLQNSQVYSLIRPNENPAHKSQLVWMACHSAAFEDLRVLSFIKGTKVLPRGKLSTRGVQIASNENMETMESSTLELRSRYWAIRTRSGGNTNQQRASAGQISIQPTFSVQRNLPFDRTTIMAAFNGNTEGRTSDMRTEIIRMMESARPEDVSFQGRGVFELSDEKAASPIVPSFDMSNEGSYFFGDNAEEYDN
UniProt P03430: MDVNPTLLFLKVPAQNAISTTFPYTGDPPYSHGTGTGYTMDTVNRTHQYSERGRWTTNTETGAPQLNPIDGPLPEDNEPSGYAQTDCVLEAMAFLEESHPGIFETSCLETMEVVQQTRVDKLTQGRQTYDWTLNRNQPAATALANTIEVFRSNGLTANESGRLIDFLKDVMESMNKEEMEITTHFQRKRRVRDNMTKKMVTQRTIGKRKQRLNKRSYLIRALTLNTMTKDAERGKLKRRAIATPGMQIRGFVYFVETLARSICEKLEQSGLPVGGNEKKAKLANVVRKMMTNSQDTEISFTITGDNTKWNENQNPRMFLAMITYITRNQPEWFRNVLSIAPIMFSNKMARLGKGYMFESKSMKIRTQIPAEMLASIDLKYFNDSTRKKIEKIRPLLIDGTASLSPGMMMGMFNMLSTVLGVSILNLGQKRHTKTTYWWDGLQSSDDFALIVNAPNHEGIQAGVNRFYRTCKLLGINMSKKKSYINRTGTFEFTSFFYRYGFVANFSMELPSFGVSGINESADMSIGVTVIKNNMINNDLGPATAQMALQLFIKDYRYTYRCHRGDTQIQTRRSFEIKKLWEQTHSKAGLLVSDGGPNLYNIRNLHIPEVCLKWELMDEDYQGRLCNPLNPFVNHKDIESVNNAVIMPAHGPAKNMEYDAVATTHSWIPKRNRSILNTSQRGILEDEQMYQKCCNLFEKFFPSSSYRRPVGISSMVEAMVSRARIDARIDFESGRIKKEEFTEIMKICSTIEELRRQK
UniProt Q13049: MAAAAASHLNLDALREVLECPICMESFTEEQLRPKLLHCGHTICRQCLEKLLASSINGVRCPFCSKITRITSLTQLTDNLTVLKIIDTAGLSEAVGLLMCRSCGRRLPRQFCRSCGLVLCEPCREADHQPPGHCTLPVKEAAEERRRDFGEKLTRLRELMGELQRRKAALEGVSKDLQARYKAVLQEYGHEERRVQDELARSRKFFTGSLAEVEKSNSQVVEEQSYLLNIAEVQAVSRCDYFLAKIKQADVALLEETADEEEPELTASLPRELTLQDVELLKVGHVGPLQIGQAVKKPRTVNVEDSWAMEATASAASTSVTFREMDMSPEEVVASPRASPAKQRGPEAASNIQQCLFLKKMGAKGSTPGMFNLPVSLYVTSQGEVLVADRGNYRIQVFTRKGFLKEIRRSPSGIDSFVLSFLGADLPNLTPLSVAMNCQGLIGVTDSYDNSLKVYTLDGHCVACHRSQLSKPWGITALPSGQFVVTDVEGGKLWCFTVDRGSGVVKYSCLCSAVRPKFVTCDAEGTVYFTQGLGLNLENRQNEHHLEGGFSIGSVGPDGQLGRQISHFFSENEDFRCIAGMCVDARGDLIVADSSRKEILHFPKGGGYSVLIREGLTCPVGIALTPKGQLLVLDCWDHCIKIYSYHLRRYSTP

Holding throughout (test): co-IP
For assay [1], the target named is C-terminal PB1 fragment (residues 493-757), PR8, fused with FLAG epitope (influenza A virus A/Puerto Rico/8/1934 (H1N1)) (UniProt P03431).
In assay [2] the target is FLAG-tagged PB1 derived from influenza A/Puerto Rico/8/1934 (PR8) (influenza A virus A/Puerto Rico/8/1934 (H1N1)) (UniProt P03431).
In assay [3] the target is PR8 derived FLAG-tagged NP (influenza A virus A/Puerto Rico/8/1934 (H1N1)) (UniProt P03466).
The target in assay [4] is FLAG-tagged PB1 from WSN, A/WSN/1933 (H1N1) (influenza A virus A/WSN/1933 (H1N1)) (UniProt P03430).
For assay [5], the target named is viral PB1 (PR8 IAV infection) (influenza A virus A/Puerto Rico/8/1934 (H1N1)) (UniProt P03431).

On to “TRIM32 CC-containing segment (residues 140-265) tagged with GFP (from UniProt Q13049 140-265) (domain or fragment)”, for which the binding result in assay [1] and in assay [2] was “binds” in each case.
“TRIM32 fused with HA epitope (from UniProt Q13049 1-653)”: the figures for the binding result in assay [2] and in assay [3] were “binds” and “no binding”, respectively.
Take TRIM32-GFP (from UniProt Q13049 1-653): the binding result in assay [2] and in assay [4] was “binds” each time.
V5-TRIM32 (from UniProt Q13049 1-653): the binding entry in assay [1] is listed as “binds”.
Turning to “endogenous TRIM32 (tripartite motif-containing protein 32) (from UniProt Q13049 1-653)”, the binding result in assay [5] is recorded as “binds”.

(Values after PMC4461266.)
